Laboratory results from patent EP4800008A1, “PYRAZOLE DERIVATIVE, OR ACCEPTABLE SALT THEREOF OR N-OXIDE THEREOF, AGRICULTURAL AND HORTICULTURAL CHEMICAL, AND INDUSTRIAL MATERIAL PROTECTANT” (Kureha Corporation, priority 2023, dated 2025).

How the values were obtained:
[1] = test system: Zymoseptoria tritici; assay: Antifungal activity test against plant pathogenic fungi (Petri dish test), wheat leaf blight fungi; conditions: read-out: mycelial growth inhibition rate; for inhibition at 100 µg/mL: 336 h
Method: (§1) The antifungal action of the compound according to an embodiment of the present invention against various plant pathogenic filamentous fungi was tested by a Petri dish test.
(§2) The compound according to an embodiment of the present invention was dissolved in dimethyl sulfoxide to a predetermined concentration and added to a PDA culture medium (potato dextrose agar medium) sterilized by autoclave and then cooled to around 60°C in an amount of 1% (V/V). The culture medium was poured into the Petri dish and a plate culture medium containing the compound of an embodiment of the present invention was prepared by mixing thoroughly so that the chemical concentration in the PDA culture medium was uniform.
(§3) On the other hand, the fungal colony of various plant pathogenic microorganisms previously cultured on the PDA culture medium was punched out using a cork borer having a diameter of 4 mm, and inoculated into the aforementioned chemical containing plate culture medium. After culture was performed at a predetermined temperature for a predetermined period of time according to Table 3, the colony diameter on the chemical-treated plate was measured. The mycelial growth inhibition rate (%) was calculated by the following formula in comparison with a diameter of the fungal colony on the untreated plate containing no chemical. R = 100(dc−dt)/dc [formula] (where R = mycelial growth inhibition rate (%), dc = colony diameter on untreated plate, dt = colony diameter on chemical-treated plate.) A larger mycelial growth inhibition rate indicates better antimicrobial action.
An antifungal test was performed using a wheat leaf blight fungi according to the aforementioned method.
(§4) For the compounds I-16, I-18, and I-48 and the control compound A, the antifungal activity test against plant pathogenic fungi and the wheat leaf blight (Zymoseptoria tritici) control efficacy test were performed in the same manner as in Test Example 1-1 and Test Example 4 except for changing the concentration to a predetermined concentration.

[2] = test system: Fusarium graminearum; assay: microbe, parasite or virus in culture; conditions: for inhibition at 100 µg/mL: 72 h, read-out: mycelial growth inhibition rate, 100 mg/L, PDA medium, 25 °C, Day 3
Method: as §1, §2, §3
An antifungal test was performed using a wheat Fusarium head blight fungi according to the aforementioned method.
For the compound I-87 and the control compound D, the antifungal activity test against wheat fusarium head blight (Fusarium graminearum) was performed in the same manner as in Test Example 1 except for changing the concentration to a predetermined concentration.

[3] = test system: Penicillium italicum; assay: Antifungal activity test against plant pathogenic fungi (Petri dish test), citrus blue mold fungi; conditions: read-out: mycelial growth inhibition rate; for inhibition at 100 µg/mL: 72 h
Method: as §1, §2, §3
An antifungal test was performed using a citrus blue mold fungi according to the aforementioned method.
For the compound I-18 and the control compound C, the antifungal activity test against the citrus blue mold fungi (Botrytis cinerea) was performed in the same manner as in Test Example 1 except for changing the concentration to a predetermined concentration.

[4] = test system: Blumeria graminis; assay: Wheat powdery mildew control efficacy test; conditions: 100 g ai/ha sprayed at 1000 L/ha on wheat; day 6 to day 8 after inoculation
Method: Wheat (variety: Norin No. 61) was cultivated from the first to second leaf stage using a square plastic pot (6.5 cm × 6.5 cm). The compound according to an embodiment of the present invention was dissolved in acetone containing 60 ppm of Gramin S, 5% (V/V) of this solution was added to water containing 60 ppm of Gramin S in a manner that the concentration became 100 g ai/ha, and this liquid was sprayed on wheat at a ratio of 1000 L/ha. The sprayed liquid on the plant body was air-dried, and then the spore of wheat powdery mildew from wheat powdery mildew seedlings was sprinkled on and inoculated. Subsequently, it was managed in a greenhouse. On day 6 to day 8 after inoculation, the disease spot area ratio of wheat powdery mildew was investigated, and the control efficacy was calculated in the same manner as in Test Example 2.

[5] = test system: Zymoseptoria tritici; assay: Wheat leaf blight control efficacy test; conditions: 100 g ai/ha sprayed at 1000 L/ha on wheat; day 27 to day 33 after inoculation
Method: Wheat (variety: Norin No. 61) was cultivated from the first to second leaf stage using a square plastic pot (6.5 cm × 6.5 cm). The compound according to an embodiment of the present invention was dissolved in acetone containing 60 ppm of Gramin S, 5% (V/V) of this solution was added to water containing 60 ppm of Gramin S in a manner that the concentration became 100 g ai/ha, and this liquid was sprayed on wheat at a ratio of 1000 L/ha. After the sprayed liquid on the plant body was air-dried, the spore of wheat leaf blight fungi (adjusted to 1 × 10^7/mL, with Gramin S added to 60 ppm) was spray-inoculated, and kept at 20°C under high-humidity conditions for 72 hours. Subsequently, it was managed in an artificial weather chamber. On day 27 to day 33 after inoculation, the disease spot area ratio of wheat leaf blight was investigated, and the control efficacy was calculated in the same manner as in Test Example 2.
as §4

SMILES	inhibition at 100 µg/mL [1] [%]	inhibition at 1.56 ppm [1] [%]	inhibition at 12.5 ppm [1] [%]	inhibition at 100 µg/mL [2] [%]	inhibition at 100 µg/mL [3] [%]	inhibition at 12.5 ppm [3] [%]	inhibition at 100 ppm [3] [%]	control efficacy [4] [%]	control efficacy [5] [%]	inhibition at 12.5 ppm ([2]; read-out: mycelial growth inhibition rate, 12.5 ppm, as Test Example 1) [%]	inhibition at 100 ppm ([2]; read-out: mycelial growth inhibition rate, 100 ppm, as Test Example 1) [%]
CON(C(=O)c1cn(C)nc1C(F)F)C(C)Cc1ccc(C#CCOCc2ccccc2)cc1Cl (stereo not shown) [Compound I-18]	≥ 80	79	95	≥ 70	≥ 80	80	86	≥ 80	≥ 80		
CON(C(=O)c1cn(C)nc1C(F)F)C(C)Cc1ccc(C#CCOc2ncc(Cl)cc2Cl)cc1Cl (stereo not shown) [Compound I-41]	≥ 80			≥ 70	≥ 80						
CON(C(=O)c1cn(C)nc1C(F)F)C(C)Cc1c(Cl)cc(Cl)cc1Cl (stereo not shown) [Control compound C, reference compound]						74	77				
CC(c1ccc(C#Cc2ccc(Cl)cc2)cc1Cl)N(C(=O)c1cn(C)nc1C(F)F)C1CC1 (stereo not shown) [Control compound D, reference compound]										57	61
